Data: PubChem BioAssay (NCATS)
The shares of active, inactive and inconclusive entries below differ from those in the screen. A potency beside an inconclusive call is a rough fit, not a confirmed value. Activity calls are given as the source filed them. The call rests on the fitted dose curve; in most records, active means well fitted inhibition curve with a large enough effect; inconclusive means small, poorly fitted or top-dose-only effect; inactive means no such curve, though single readings can be large or run the other way.

test: BET inhibitor-based combinations targeting novel dependencies in MECOM-rearranged (r) AML: HNT-34 cell line (AID 2202234); details: HNT-34 AML viability, CellTiter-Glo luminescence, 48 h; series mostly up to 46 µM; further: nearly all actives have a fitted effect of over 35% in size
Outline: (§1)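 Using pin-tool transfer, drugs were added in 11 doses to cells (500/well), incubated 48 hr, and assessed with CellTiter-Glo. Z-AUC is a mean-centring transformation applied separately to each screened line.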
Potency means the concentration at half of the fitted maximal effect; tags describe the fitted curve by direction and shape.

Structure (SMILES) | Potency
NC(=O)c1ccc(N(C(N)=O)c2c(F)cccc2F)nc1-c1ccc(F)cc1F | inactive
CCN(CC)CCNc1ccc(C)c2sc3ccccc3c(=O)c12 | active: 16.6 µM
[O-][n+]1cccc(-c2nc3c(Cl)cccc3cc2[C@@H](Nc2ncnc3cccnc23)C(F)(F)F)c1 | inconclusive: 20.9 µM [inhibitor, partial curve]
C[C@@H](Oc1cc(-n2cnc3ccc(CN4CCN(C)CC4)cc32)sc1C(N)=O)c1ccccc1C(F)(F)F | inconclusive: 0.0833 µM [inhibitor, full curve]
O=C(Nc1ccc(OC(F)(F)Cl)cc1)c1cnc(N2CC[C@@H](O)C2)c(-c2ccn[nH]2)c1 | active: 0.0105 µM
CCOc1ccc(-n2c([C@@H](C)N(Cc3cccnc3)C(=O)Cc3ccc(F)c(C(F)(F)F)c3)nc3ncccc3c2=O)cc1 | inactive
COc1ccc(-c2cc3nccn3c(Nc3ncccc3C(N)=O)n2)cc1OC | inconclusive: 3.32 µM [inhibitor, full curve]
O=C(Nc1cccc(Br)c1)c1cccc(S(=O)(=O)N2CCCCCC2)c1 | inconclusive: 16.6 µM [inhibitor, partial curve]
COc1ccccc1C(=O)Nc1cc2c(cc1N1CCNC[C@H]1C)n(C)c(=O)n2C | inconclusive: 20.9 µM [inhibitor, partial curve]
NC1CCC(N[C@@H]2C[C@H]2c2ccccc2)CC1 (some centres undefined) | inconclusive: 23.5 µM [inhibitor, partial curve]
CNC(=O)[C@H](Cc1ccccc1)NC(=O)[C@H](CC(C)C)[C@H](CSc1cccs1)C(=O)NO | inconclusive: 23.5 µM [inhibitor, partial curve, poor fit]
Cc1ccc(NS(=O)(=O)c2cccc(C#N)c2)c2[nH]cc(C#N)c12 | inconclusive: 0.468 µM [inhibitor, full curve]
C#Cc1cccc(Nc2ncnc3cc(OCCOC)c(OCCO)cc23)c1 | active: 2.63 µM
COC(=O)C1C2CC3c4[nH]c5cc(OC)ccc5c4CCN3CC2CC(OC(=O)c2cc(OC)c(OC)c(OC)c2)C1OC (centres undefined) | inconclusive: 29.5 µM [inhibitor, single point]
Cc1c(-c2cnccn2)ssc1=S | inconclusive: 18.6 µM [inhibitor, partial curve]

test: BET inhibitor-based combinations targeting novel dependencies in MECOM-rearranged (r) AML: UCSD-AML1 cell line (AID 2202235); details: UCSD-AML1 AML cells viability, CellTiter-Glo, 48 h; series mostly up to 46 µM; further: nearly all actives have a fitted effect of over 40% in size
Outline: as §1

Structure (SMILES) | Potency
CC1=C[C@@H]2[C@@H]([C@@H](O)C[C@@]3(C)[C@H]2C[C@@H](C)[C@]3(O)C(=O)CO)[C@@]2(C)Cc3cnn(-c4ccccc4)c3C=C12 | inconclusive: 18.6 µM [inhibitor, partial curve]
CC(C)n1c(/C=C/[C@H](O)C[C@H](O)CC(=O)O)c(-c2ccc(F)cc2)c2ccccc21 | active: 11.8 µM
COC(=O)C1=C(C)NC(c2ncc(F)cc2F)=N[C@H]1c1ccc(F)cc1Cl | inconclusive: 26.3 µM [inhibitor, partial curve]
CC1=C(CC(=O)O)c2cc(F)ccc2C1=Cc1ccc(S(C)=O)cc1 (centres undefined) | inactive
COc1cc2ncn(-c3cc(OCc4ccccc4S(C)(=O)=O)c(C#N)s3)c2cc1OC | inconclusive: 37.2 µM [inhibitor, partial curve, poor fit]
Cc1ccc(NC(=O)c2ccc(CN3CCNCC3)cc2)cc1Nc1nccc(-c2cccnc2)n1 | inconclusive: 18.6 µM [inhibitor, partial curve]
COc1cc2nccc(Oc3ccc(NC(=O)C4(C(=O)Nc5ccc(F)cc5)CC4)cc3)c2cc1OC | inconclusive: 8.33 µM [inhibitor, partial curve, poor fit]
CC1=C2C[C@H]3[C@@H](CC[C@@H]4C[C@H](NS(C)(=O)=O)CC[C@@]43C)[C@@H]2CC[C@@]2(C1)O[C@@H]1C[C@H](C)CN[C@H]1[C@H]2C | inconclusive: 11.8 µM [inhibitor, single point]
NC1=N[C@H]2[C@H](CS[C@H]2CCCCC(=O)O)N1 | inconclusive: 1.29 µM [inhibitor, partial curve, poor fit]
CC(C)(C)Sc1c(CC(C)(C)C(=O)O)n(Cc2ccc(Cl)cc2)c2ccc(OCc3ccc4ccccc4n3)cc12 | inconclusive: 37.2 µM [inhibitor, single point]
O=C1c2ccccc2-c2n[nH]c3cccc1c23 | inconclusive: 11.8 µM [inhibitor, partial curve, poor fit]
O=C1C[C@@H](c2ccc(O)cc2)Oc2cc(O)cc(O)c21 | inactive
CN(C)C(=O)COC(=O)Cc1ccc(OC(=O)c2ccc(N=C(N)N)cc2)cc1 | inactive
C=CC(=O)N1CC[C@@H](Oc2nc(Nc3ccc(N4CCC(N5CCN(C)CC5)CC4)cc3)c(C(N)=O)nc2CC)C1 | inconclusive: 4.56 µM [inhibitor, single point]
CC#Cc1cncc(-c2ccc3c(c2)[C@@]2(N=C(C)C(N)=N2)C2(CCC(OC)CC2)C3)c1 (some centres undefined) | inconclusive: 33.2 µM [inhibitor, single point]
NCCCCNCCCN | inconclusive: 5.25 µM [inhibitor, partial curve, poor fit]
C[C@H](NC(=O)/C(C#N)=C/c1cccc(Br)n1)c1ccccc1 | active: 3.72 µM
Cn1cc(-c2cc(Oc3cc(F)c(NC(=O)C4(C(=O)Nc5ccccc5)CC4)cc3F)ccn2)cn1 | inconclusive: 26.3 µM [inhibitor, partial curve]
Cc1[nH]c(/C=C2\C(=O)Nc3ccc(S(=O)(=O)Cc4c(Cl)cccc4Cl)cc32)c(C)c1C(=O)N1CCC[C@@H]1CN1CCCC1 | active: 8.33 µM
CCN1C(=O)CNc2ncc(-c3ccc(-c4ncn[nH]4)nc3C)nc21 | active: 0.186 µM
CCc1cccc(CC)c1NC(=O)N1Cc2[nH]nc(NC(=O)c3ccc(N4CCN(C)CC4)cc3)c2C1 | active: 14.8 µM
CC(C)(Oc1ccc(C2CC2(Cl)Cl)cc1)C(=O)O (centres undefined) | inactive
CN1CCN(C2=Nc3cc(Cl)ccc3Nc3ccccc32)CC1 | inconclusive: 3.32 µM [inhibitor, full curve, poor fit]
O=c1sn(-c2cccc3ccccc23)c(=O)n1Cc1ccccc1 | inconclusive: 11.8 µM [inhibitor, partial curve, poor fit]
